# Reference: ChEMBL document CHEMBL4888484, “Replenishing the malaria drug discovery pipeline: Screening and hit evaluation of the MMV Hit Generation Library 1 (HGL1) against asexual blood stage Plasmodium falciparum ,using a nano luciferase reporter read-out” (2022)
# About 540 (0.36%) of roughly 150,000 compounds showed an effect of 50% or more. Some of the results follow.
# System: Plasmodium falciparum
# Assay: Primary screen in NF54 nanoGlo assay, in single point, at 2uM, 72h; a lower Z score goes with more inhibition
# Format: functional, Erythrocyte
# Conditions: timepoint 72 hour
Structure (SMILES),% Inhibition,Z score
CCc1csc(CNC(=O)c2cnn[nH]2)n1,15%,-1.9
CCCCC(=O)N1CCN(C(=O)CCCC)c2ccc(O)cc2C1,-7%,0.8
CCc1c(NC(=O)COC)nnn1CCc1ccc(OC)cc1,-16%,1.71
CCn1cnnc1CN(C)Cc1c(C)nc2ccccn12,2%,-0.25
CN1CC(=O)N(Cc2nc(C3(c4ccc(F)cc4)CCCCC3)no2)C1=O,-6%,1.21
CCN(CCc1nc2c(C)cccc2[nH]1)C(=O)Cc1cc(C)no1,11%,-1.58
CC(C)(C)n1cncc1[C@H]1CCCN(C(=O)NCc2nccs2)C1,-9%,1.81
COCCNC(=O)[C@H]1C[C@H](Oc2ccccc2)CN1Cc1ccc(OC(F)(F)F)cc1,-19%,3.56
CCCc1cc(C(=O)NCCN2CCOCC2)no1,-15%,1.68
O=C(Nc1ccc(Cl)cc1)C1(F)C(F)(F)C(F)(F)C(F)(F)C(F)(F)C1(F)F,-5%,0.86
NS(=O)(=O)c1ccc(CCNc2nc3ccccc3o2)cc1,-3%,0.4
COc1cc(C)ccc1OCc1nc(C(=O)NCc2nc(C)c[nH]2)co1,12%,-1.45
CN(Cc1cnn(C)c1)C[C@H]1CCCN1C(=O)OC(C)(C)C,-1%,0.12
O=C(NC1CCCCC1)c1nccnc1C(=O)N1CCCCC1,-17%,1.55
NC(=O)c1ccc(-n2ccnc2-c2cccc(-n3cccn3)c2)cc1Cl,-7%,0.95
Cc1ccccc1N1C(=O)CN(S(=O)(=O)c2ccccc2)C[C@@]1(C)C(=O)NCc1ccc(F)cc1,-11%,1.34
CC[C@H](NC(=O)CCn1c(C)cc(C)nc1=O)c1cc(C)ccn1,-8%,1.36
CCNC(=O)N1CCC(Cc2ccc(C(=O)N(C)CCc3c(C)nn(C)c3C)cc2)CC1,-16%,2.01
Cc1ccc(-n2nnc(-c3nc(C)c(C(=O)NCCc4ccccc4)s3)c2C)cc1C,-2%,0.15
Cc1nc(C)c(CNC(=O)N2CCC3CCCCC32)s1 (stereo not given),1%,-0.08
O=c1ccncn1CC1CCN(Cc2cc(F)cc(F)c2)CC1,-9%,1.26
N#CCN(CC#N)C(=O)Cc1cccs1,-1%,0.14

Structure (SMILES),% Inhibition,Z score
Cc1[nH]c2ccc(Br)cc2c1Cc1nc(-c2cncc(Cl)c2)no1,-4%,0.65
N#Cc1ccc(O[C@H]2CCOC[C@@H]2NC(=O)CCc2cc(O)no2)cc1,5%,-0.65
CCN(CC)S(=O)(=O)c1ccc(NCc2nncn2C)cc1,-7%,1.31
C[C@H]1CN(CCC(=O)NCc2nccs2)Cc2ccccc2O1,-6%,0.89
NC(=O)c1cccc(CS(=O)(=O)CC2CCCC2)n1,-13%,1.39
O=C(NCc1ccccn1)c1ccc(OCc2nnc(C(=O)Nc3ccc(F)c(F)c3)s2)cc1,-33%,3.03
COc1cc(C)nc(NCc2nc(C(F)(F)F)c[nH]2)n1,-6%,0.69
CCOc1ccccc1C(F)(F)C(=O)Nc1cn(C)nc1C(N)=O,-1%,0.29
CCn1nccc1C1NC(=O)CCC1NC(=O)c1ccccc1C (stereo not given),29%,-3.3
Cn1cc(CCNCc2c[nH]nc2-c2cccs2)cn1,-9%,1.23
Cc1nc(CNC(=O)CCn2c(C)nc3ccccc32)nc2c1CCCC2,-10%,1.23
CC(C)c1nnc(CNc2ccc(C#N)cc2)o1,36%,-0.73
Cc1cccc(NC(=O)CN(CC2CCCO2)C(=O)C2CCS(=O)(=O)C2)c1C (stereo not given),13%,-1.17
CN(CC(=O)Nc1cccc(Cl)c1Cl)S(C)(=O)=O,-4%,0.74
CC(C)(C(=O)Nc1cccc(OCC(=O)O)c1)[C@@H]1CCCCO1,-11%,1.16
O=C(NCc1ccncc1)c1c[nH]c2cc(Cl)ccc2c1=O,6%,-0.81
CCCn1cc(-c2ccnc(N[C@H](C)c3ccccc3)n2)c(C)n1,-9%,1.41
COC(=O)[C@@H]1C[C@@H](O)CN1C(=O)c1coc(COc2cccc(F)c2)n1,-20%,1.87
O=C(CCc1cnccn1)N1CCO[C@@H](CC(c2ccccc2)c2ccccc2)C1,-2%,0.41
Cc1nc(O)nc(O)c1S(=O)(=O)N1CCC[C@H](C(=O)NC2CCCCCCC2)C1,10%,-1.22
COc1ccc(-c2ccc(N3CCN(C(=O)CN(C(=O)NC(C)(C)C)[C@@H](C)c4ccccc4)CC3)nn2)cc1OC,-23%,1.99
CC(C)(C)c1csc(Cn2cnc(C#N)n2)n1,-10%,1.53

Structure (SMILES),% Inhibition,Z score
COc1cc(NC(=O)c2cc(Br)ccc2Cl)ncn1,1%,-0.11
CCc1ccccc1-c1noc([C@@H]2COCCO2)n1,18%,-2.25
CCc1nc(C)c(C(=O)N[C@@H](CC)c2ncccc2C)o1,-11%,1.74
CC(C)(Oc1cccc(Cl)c1)C(=O)NCCNS(C)(=O)=O,-15%,2.03
CC(=O)Nc1nc(-c2ccc(S(=O)(=O)N3CCOCC3)cc2)cs1,-6%,0.9
CC(C)(C)[C@H](COc1ccccc1F)NC(=O)CCn1ccnn1,-10%,1.35
CCn1nncc1CNC(=O)Nc1c(Cl)ccc(C)c1C,-4%,0.55
Cc1nc(O)nc(C)c1CCC(=O)NC(C)(C)Cc1ccc(O)cc1,5%,-0.66
Cn1ncc(CN2CCC[C@H](C(=O)Cc3ccccc3)C2)c1C1CC1,-13%,1.29
Cc1cc(C(=O)N2CCc3c(ncn3-c3ccc(F)cc3)C2)nn1[C@@H](C)C1CC1,35%,-3.99
COc1ccc(NC(=O)N(CCO)Cc2nccs2)cc1OC,-9%,1.62
Cc1nn(C(F)F)cc1S(=O)(=O)N1CCNCC1,0%,-0.02
COc1ccc(C2CN(Cc3ccccc3)CC2CO)cc1 (stereo not given),4%,-0.45
CNC(=O)C1(N2CCC[C@H]2C(=O)NCc2ccccc2)CCOCC1,-1%,0.14
CC(C)(C)C1CCC(CNC(=O)Nc2nc(CS(C)(=O)=O)no2)CC1 (stereo not given),-4%,0.56
Cc1cc(N2CCC(NC(=O)c3c(F)cccc3Cl)CC2)n[nH]1,-13%,1.68
Cc1cc(NC(=O)[C@@H]2CN(C)c3ccccc3O2)ccc1N1CCCC1=O,-3%,0.38
O=C(C1c2ccccc2Oc2ccccc21)N1CCC(Oc2ccc(Cl)cn2)CC1,-8%,1.22
Cc1cc(C)cc(OCCCN2CCC[C@@H]2C(=O)O)c1,5%,-0.66
O=C(CCc1ccccn1)N1CCC[C@H](Cc2nc3ccccc3[nH]2)C1,1%,-0.08
CN(Cc1ccccc1)c1ncnc2c1CCN(C(=O)C1CCC1)CC2,-21%,2.11
CC(C)c1nc(C(=O)NCC2(N3CCN(C)CC3)CCCC2)cs1,1%,-0.26

Structure (SMILES),% Inhibition,Z score
CC(=O)N1CCC(C(=O)N2CC[C@@]3(CCCN(CCC4CCCCC4)C3)C2)CC1,-6%,0.79
CNc1nc2c(c(C(=O)N3CCCC3)n1)CN(C/C=C/c1ccccc1)CC2,3%,-0.4
CN(C)Cc1ccc(-c2ccc3nc[nH]c(=O)c3c2)cc1,-3%,0.47
Cc1oc(-c2ccccc2)nc1[C@@H]1CC(=O)Nc2cc3[nH]ncc3cc21,-7%,1.3
O=C1CCN(Cc2ccc3c(c2)CCO3)CCOCCN1,-1%,0.15
O=C(O)[C@H]1CCCN1CCCOc1cccc(Cl)c1,-3%,0.37
CC(C)[C@@H](N)C(=O)NC[C@H]1CC[C@H](C(=O)N[C@@H](C(=O)O)C(C)C)CC1,-7%,0.98
O=C1NC2(CCOCC2)C(=O)N2Cc3ccccc3C[C@H]12,-14%,1.45
Cc1ccc(C(=O)N[C@H]2CO[C@H]3[C@@H]2OC[C@H]3OCc2ccccc2)cc1,-12%,2.19
O=C(CCn1ccnc1)NCc1ccc(F)cc1,16%,-1.7
Cc1nc2ccc(NC(=O)N(C)C3CCCCC3)cc2s1,19%,-2.44
O=C(NCc1n[nH]c(=O)[nH]1)c1ccc(Br)c(F)c1,-6%,0.79
NC(=O)c1cc(CN[C@H]2CCCCC23CCCC3)on1,-7%,1.26
O=C(c1ccc2c(c1)OCO2)N1CCc2[nH]n(-c3ccccc3)c(=O)c2C1,24%,-2.68
Cc1cccnc1NC(=O)C1CN(S(=O)(=O)C2CC2)C1,-6%,1
CCN1CC2(CCN(C(=O)c3ccc(Cn4nnnc4C)cc3)CC2)CC1=O,-20%,2.35
CN(C)S(=O)(=O)NC1(Cc2ccccc2)CCCC1,-15%,1.67
CCc1cc2c(N3CCC(=O)N(C)CC3)ncnc2s1,-4%,0.49
Cc1ccc(NC(=O)NCCOc2cc(N3CCN(C)CC3)ncn2)cc1C,18%,-2.38
